{"source": "the supplement of paper PMC8728848", "experiment_in_all_cases": "glycan array binding signal (z-score within array); higher = stronger binding", "conditions_in_all_cases": "glycan notation: IUPAC condensed, linker removed", "key": {"[1]": {"target": "Neu5Ac(a2-6)Gal", "how_it_was_run": "(§1)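 Arrays were curated from the Consortium for Functional Glycomics database, 3228 in total, and kept only where the protein sequence was available. Binding is expressed as a within-array Z-score. This score was averaged across arrays of the same protein sequence at different concentrations or buffers and across linkers, and negative values can be read as non-binding.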"}, "[2]": {"target": "Neu5Ac(a2-6)Gal(b1-3)GalNAc(b1-4)Gal(b1-4)Glc", "how_it_was_run": "as §1"}, "[3]": {"target": "Neu5Ac(a2-6)Gal(b1-3)GlcNAc(b1-3)[Fuc(a1-3)[Gal(b1-4)]GlcNAc(b1-6)]Gal(b1-4)Glc", "how_it_was_run": "as §1"}, "[4]": {"target": "Neu5Ac(a2-6)Gal(b1-3)GlcNAc(b1-3)[Gal(b1-4)GlcNAc(b1-6)]Gal(b1-4)Glc", "how_it_was_run": "as §1"}, "[5]": {"target": "Neu5Ac(a2-6)Gal(b1-3)[Neu5Ac(a2-6)]GalNAc(b1-4)Gal(b1-4)Glc", "how_it_was_run": "as §1"}, "[6]": {"target": "Neu5Ac(a2-6)Gal(b1-4)Glc", "how_it_was_run": "as §1"}, "[7]": {"target": "Neu5Ac(a2-6)Gal(b1-4)GlcNAc", "how_it_was_run": "as §1"}, "[8]": {"target": "Neu5Ac(a2-6)Gal(b1-4)GlcNAc(b1-2)Man", "how_it_was_run": "as §1"}, "[9]": {"target": "Neu5Ac(a2-6)Gal(b1-4)GlcNAc(b1-2)Man(a1-3)Man(b1-4)GlcNAc(b1-4)GlcNAc", "how_it_was_run": "as §1"}, "[10]": {"target": "Neu5Ac(a2-6)Gal(b1-4)GlcNAc(b1-2)Man(a1-3)[Gal(b1-4)GlcNAc(b1-2)Man(a1-6)]Man(b1-4)GlcNAc(b1-4)GlcNAc", "how_it_was_run": "as §1"}, "[11]": {"target": "Neu5Ac(a2-6)Gal(b1-4)GlcNAc(b1-2)Man(a1-3)[GlcNAc(b1-2)Man(a1-6)]Man(b1-4)GlcNAc(b1-4)GlcNAc", "how_it_was_run": "as §1"}, "[12]": {"target": "Neu5Ac(a2-6)Gal(b1-4)GlcNAc(b1-2)Man(a1-3)[GlcNAc(b1-2)Man(b1-4)GlcNAc(b1-2)Man(a1-6)]Man(b1-4)GlcNAc(b1-4)GlcNAc", "how_it_was_run": "as §1"}, "[13]": {"target": "Neu5Ac(a2-6)Gal(b1-4)GlcNAc(b1-2)Man(a1-3)[GlcNAc(b1-4)][Neu5Ac(a2-6)Gal(b1-4)GlcNAc(b1-2)Man(a1-6)]Man(b1-4)GlcNAc(b1-4)GlcNAc", "how_it_was_run": "as §1"}, "[14]": {"target": "Neu5Ac(a2-6)Gal(b1-4)GlcNAc(b1-2)Man(a1-3)[Man(a1-6)]Man(b1-4)GlcNAc(b1-4)GlcNAc", "how_it_was_run": "as §1"}, "[15]": {"target": "Neu5Ac(a2-6)Gal(b1-4)GlcNAc(b1-2)Man(a1-3)[Neu5Ac(a2-3)Gal(b1-4)GlcNAc(b1-2)Man(a1-6)]Man(b1-4)GlcNAc(b1-4)GlcNAc", "how_it_was_run": "as §1"}, "[16]": {"target": "Neu5Ac(a2-6)Gal(b1-4)GlcNAc(b1-2)Man(a1-3)[Neu5Ac(a2-6)Gal(b1-4)GlcNAc(b1-2)Man(a1-6)]Man(b1-4)GlcNAc(b1-4)GlcNAc", "how_it_was_run": "as §1"}, "[17]": {"target": "Neu5Ac(a2-6)Gal(b1-4)GlcNAc(b1-2)Man(a1-3)[Neu5Ac(a2-6)Gal(b1-4)GlcNAc(b1-2)Man(a1-6)]Man(b1-4)GlcNAc(b1-4)[Fuc(a1-6)]GlcNAc", "how_it_was_run": "as §1"}, "[18]": {"target": "Neu5Ac(a2-6)Gal(b1-4)GlcNAc(b1-2)Man(a1-3)[Neu5Gc(a2-6)Gal(b1-4)GlcNAc(b1-2)Man(a1-6)]Man(b1-4)GlcNAc(b1-4)GlcNAc", "how_it_was_run": "as §1"}, "[19]": {"target": "Neu5Ac(a2-6)Gal(b1-4)GlcNAc(b1-2)Man(a1-6)Man(b1-4)GlcNAc(b1-4)GlcNAc", "how_it_was_run": "as §1"}, "[20]": {"target": "Neu5Ac(a2-6)Gal(b1-4)GlcNAc(b1-2)Man(a1-6)[Gal(b1-4)GlcNAc(b1-2)Man(a1-3)]Man(b1-4)GlcNAc(b1-4)GlcNAc", "how_it_was_run": "as §1"}, "[21]": {"target": "Neu5Ac(a2-6)Gal(b1-4)GlcNAc(b1-2)Man(a1-6)[GlcNAc(b1-2)Man(a1-3)]Man(b1-4)GlcNAc(b1-4)GlcNAc", "how_it_was_run": "as §1"}, "[22]": {"target": "Neu5Ac(a2-6)Gal(b1-4)GlcNAc(b1-2)Man(a1-6)[Man(a1-3)]Man(b1-4)GlcNAc(b1-4)GlcNAc", "how_it_was_run": "as §1"}, "[23]": {"target": "Neu5Ac(a2-6)Gal(b1-4)GlcNAc(b1-2)[Neu5Ac(a2-3)Gal(b1-4)GlcNAc(b1-4)]Man(a1-3)[Neu5Ac(a2-3)Gal(b1-4)GlcNAc(b1-2)Man(a1-6)]Man(b1-4)GlcNAc(b1-4)GlcNAc", "how_it_was_run": "as §1"}, "[24]": {"target": "Neu5Ac(a2-6)Gal(b1-4)GlcNAc(b1-2)[Neu5Ac(a2-6)Gal(b1-4)GlcNAc(b1-4)]Man(a1-3)[GlcNAc(b1-4)][Neu5Ac(a2-6)Gal(b1-4)GlcNAc(b1-2)[Neu5Ac(a2-6)Gal(b1-4)GlcNAc(b1-6)]Man(a1-6)]Man(b1-4)GlcNAc(b1-4)GlcNAc", "how_it_was_run": "as §1"}, "[25]": {"target": "Neu5Ac(a2-6)Gal(b1-4)GlcNAc(b1-2)[Neu5Ac(a2-6)Gal(b1-4)GlcNAc(b1-4)]Man(a1-3)[GlcNAc(b1-4)][Neu5Ac(a2-6)Gal(b1-4)GlcNAc(b1-4)Man(a1-6)]Man(b1-4)GlcNAc(b1-4)GlcNAc", "how_it_was_run": "as §1"}, "[26]": {"target": "Neu5Ac(a2-6)Gal(b1-4)GlcNAc(b1-2)[Neu5Ac(a2-6)Gal(b1-4)GlcNAc(b1-6)]Man(a1-6)[Neu5Ac(a2-6)Gal(b1-4)GlcNAc(b1-2)Man(a1-3)][GlcNAc(b1-4)]Man(b1-4)GlcNAc(b1-4)GlcNAc", "how_it_was_run": "as §1"}, "[27]": {"target": "Neu5Ac(a2-6)Gal(b1-4)GlcNAc(b1-3)Gal(b1-3)GlcNAc", "how_it_was_run": "as §1"}, "[28]": {"target": "Neu5Ac(a2-6)Gal(b1-4)GlcNAc(b1-3)Gal(b1-4)Glc", "how_it_was_run": "as §1"}, "[29]": {"target": "Neu5Ac(a2-6)Gal(b1-4)GlcNAc(b1-3)Gal(b1-4)GlcNAc", "how_it_was_run": "as §1"}, "[30]": {"target": "Neu5Ac(a2-6)Gal(b1-4)GlcNAc(b1-3)Gal(b1-4)GlcNAc(b1-2)Man(a1-3)[Neu5Ac(a2-6)Gal(b1-4)GlcNAc(b1-3)Gal(b1-4)GlcNAc(b1-2)Man(a1-6)]GalNAc", "how_it_was_run": "as §1"}, "[31]": {"target": "Neu5Ac(a2-6)Gal(b1-4)GlcNAc(b1-3)Gal(b1-4)GlcNAc(b1-3)Gal(b1-4)GlcNAc", "how_it_was_run": "as §1"}, "[32]": {"target": "Neu5Ac(a2-6)Gal(b1-4)GlcNAc(b1-3)Gal(b1-4)GlcNAc(b1-3)Gal(b1-4)GlcNAc(b1-2)Man(a1-3)[Neu5Ac(a2-6)Gal(b1-4)GlcNAc(b1-3)Gal(b1-4)GlcNAc(b1-3)Gal(b1-4)GlcNAc(b1-2)Man(a1-6)]GalNAc", "how_it_was_run": "as §1"}, "[33]": {"target": "Neu5Ac(a2-6)Gal(b1-4)GlcNAc(b1-3)Gal(b1-4)GlcNAc(b1-3)GalNAc", "how_it_was_run": "as §1"}, "[34]": {"target": "Neu5Ac(a2-6)Gal(b1-4)GlcNAc(b1-3)Gal(b1-4)GlcNAc(b1-3)[Neu5Ac(a2-6)Gal(b1-4)GlcNAc(b1-3)Gal(b1-4)GlcNAc(b1-6)]GalNAc", "how_it_was_run": "as §1"}, "[35]": {"target": "Neu5Ac(a2-6)Gal(b1-4)GlcNAc(b1-3)Gal(b1-4)GlcNAc(b1-6)[Gal(b1-3)]GalNAc", "how_it_was_run": "as §1"}, "[36]": {"target": "Neu5Ac(a2-6)Gal(b1-4)GlcNAc(b1-3)Gal(b1-4)[Fuc(a1-3)]Glc", "how_it_was_run": "as §1"}, "[37]": {"target": "Neu5Ac(a2-6)Gal(b1-4)GlcNAc(b1-3)Gal(b1-4)[Fuc(a1-3)]GlcNAc(b1-3)Gal(b1-4)[Fuc(a1-3)]GlcNAc", "how_it_was_run": "as §1"}, "[38]": {"target": "Neu5Ac(a2-6)Gal(b1-4)GlcNAc(b1-3)GalNAc", "how_it_was_run": "as §1"}, "[39]": {"target": "Neu5Ac(a2-6)Gal(b1-4)GlcNAc(b1-3)[Neu5Ac(a2-6)Gal(b1-4)GlcNAc(b1-6)]Gal(b1-4)Glc", "how_it_was_run": "as §1"}}, "note": "Some of the results follow.", "data": [{"binder": "CLEC5A (Homo sapiens), Q9NY25 (protein) MNWHMIISGLIVVVLKVVGMTLFLLYFPQIFNKSNDGFTTTRSYGTVSQIFGSSSPSPNGFITTRSYGTVCPKDWEFYQARCFFLSTSESSWNESRDFCKGKGSTLAIVNTPEKLKFLQDITDAEKYFIGLIYHREEKRWRWINNSVFNGNVTNQNQNFNCATIGLTKTFDAASCDISYRRICEKNAK", "values": [{"measurement": "glycan array binding signal (z-score)", "setting": "[1]", "value": -0.218}, {"measurement": "glycan array binding signal (z-score)", "setting": "[2]", "value": -0.32}, {"measurement": "glycan array binding signal (z-score)", "setting": "[3]", "value": 0.258}, {"measurement": "glycan array binding signal (z-score)", "setting": "[4]", "value": -0.234}, {"measurement": "glycan array binding signal (z-score)", "setting": "[5]", "value": -0.32}, {"measurement": "glycan array binding signal (z-score)", "setting": "[6]", "value": -0.242}, {"measurement": "glycan array binding signal (z-score)", "setting": "[7]", "value": -0.226}, {"measurement": "glycan array binding signal (z-score)", "setting": "[8]", "value": -0.191}, {"measurement": "glycan array binding signal (z-score)", "setting": "[9]", "value": -0.22}, {"measurement": "glycan array binding signal (z-score)", "setting": "[10]", "value": 0.57}, {"measurement": "glycan array binding signal (z-score)", "setting": "[11]", "value": -0.227}, {"measurement": "glycan array binding signal (z-score)", "setting": "[12]", "value": 0.569}, {"measurement": "glycan array binding signal (z-score)", "setting": "[13]", "value": -0.171}, {"measurement": "glycan array binding signal (z-score)", "setting": "[14]", "value": -0.151}, {"measurement": "glycan array binding signal (z-score)", "setting": "[15]", "value": -0.161}, {"measurement": "glycan array binding signal (z-score)", "setting": "[16]", "value": 0.777}, {"measurement": "glycan array binding signal (z-score)", "setting": "[17]", "value": 0.113}, {"measurement": "glycan array binding signal (z-score)", "setting": "[18]", "value": -0.32}, {"measurement": "glycan array binding signal (z-score)", "setting": "[19]", "value": -0.395}, {"measurement": "glycan array binding signal (z-score)", "setting": "[20]", "value": 0.092}, {"measurement": "glycan array binding signal (z-score)", "setting": "[21]", "value": -0.21}, {"measurement": "glycan array binding signal (z-score)", "setting": "[22]", "value": 0.033}, {"measurement": "glycan array binding signal (z-score)", "setting": "[23]", "value": -0.32}, {"measurement": "glycan array binding signal (z-score)", "setting": "[24]", "value": 0.123}, {"measurement": "glycan array binding signal (z-score)", "setting": "[25]", "value": -0.023}, {"measurement": "glycan array binding signal (z-score)", "setting": "[26]", "value": -0.184}, {"measurement": "glycan array binding signal (z-score)", "setting": "[27]", "value": 0.253}, {"measurement": "glycan array binding signal (z-score)", "setting": "[28]", "value": -0.32}, {"measurement": "glycan array binding signal (z-score)", "setting": "[29]", "value": -0.159}, {"measurement": "glycan array binding signal (z-score)", "setting": "[30]", "value": 0.366}, {"measurement": "glycan array binding signal (z-score)", "setting": "[31]", "value": -0.19}, {"measurement": "glycan array binding signal (z-score)", "setting": "[32]", "value": 0.213}, {"measurement": "glycan array binding signal (z-score)", "setting": "[33]", "value": -0.189}, {"measurement": "glycan array binding signal (z-score)", "setting": "[34]", "value": -0.099}, {"measurement": "glycan array binding signal (z-score)", "setting": "[35]", "value": -0.156}, {"measurement": "glycan array binding signal (z-score)", "setting": "[36]", "value": 0.162}, {"measurement": "glycan array binding signal (z-score)", "setting": "[37]", "value": -0.16}, {"measurement": "glycan array binding signal (z-score)", "setting": "[38]", "value": -0.058}, {"measurement": "glycan array binding signal (z-score)", "setting": "[39]", "value": 0.644}]}]}
